Test results taken from PubChem BioAssay AID1963576 (National Center for Advancing Translational Sciences (NCATS), 2024).
Among all 46,000 compounds or so, about 60 (0.1%) were called active. About 3% were inconclusive and are not listed. The call rests on the fitted dose curve; in most records, active means well fitted inhibition curve with a large enough effect; inconclusive means small, poorly fitted or top-dose-only effect; inactive means no such curve, though single readings can be large or run the other way. The list shows a part of the results.

Experiment: Primary qHTS assay for Inhibitors of ovarian cancer metastasis using an organotypic tumor microenvironment (TME) model. Further: nearly all actives have a fitted effect of over 65% in size.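 On activity change, negative = inhibition: plate controls were DMSO wells for no effect and tomatine positive control wells for full effect.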
Details: SKOV3ip1-GFP adhesion/invasion on 3D omental model, fluorescence; series mostly up to 45.8 µM; activity change, negative = inhibition: at the top concentration
Summary of the method: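 qHTS, 4-pt dose (0.36-46 umol/L); SKOV3ip1-GFP, 1,200 cells/well, no FBS; primary omental fibroblast/mesothelial co-culture 48 h pre-grown; 2 h RT + 16 h 37 C; PBS wash, 4% PFA; GFP count 488/509 nm.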

Activity change, negative = inhibition, inactive:
CC(C)c1ccc(NC(c2nnc(-c3ccccc3)o2)c2ccc(F)cc2Cl)cc1 (stereo not drawn) 5.96%
COc1ccccc1-c1nnc(SCC(N)=O)o1 -1.31%
COc1ccccc1OCCn1c(C(C)Oc2ccccc2)nc2ccccc21 (stereo not drawn) 3.55%
CC(=O)c1cc2c(cc1N/C(=N/S(=O)(=O)c1ccccc1)c1ccc(Cl)cc1)OCO2 -29.1%
CCN(CC)CCNc1ncnc2c1cnn2-c1cc(Cl)ccc1C -11.3%
CCNc1nc(N)nc(Oc2ccc(OCC(=O)OC)nn2)n1 -2.19%
CCOc1ccc(-c2nc(CNC(=O)NC3CCCCC3)c(C)o2)cc1 1.97%
Cc1ccc(N2CC(C(=O)NCCS(=O)(=O)N3CCN(c4ccccc4)CC3)CC2=O)cc1C (stereo not drawn) -35.6%
Cc1ccc(C)c(Nc2nn3c(=O)c4ccc(C(=O)NCCC5=CCCCC5)cc4nc3s2)c1 10.2%
O=C(CCc1ccccc1)N(Cc1cccnc1)c1nc2c(F)cc(F)cc2s1 -4.56%
Cc1ccc(C)c(NC(=O)N(C)CCc2c(C)nn(C)c2C)c1 1.61%
CCOc1ccc(OCc2ccc(C(=O)Nc3cc(OC)c(OC)c(OC)c3)o2)cc1 -1.58%
CC(C)c1ccc(-c2noc(SCC(=O)N3CCN(c4ccc(F)cc4)CC3)n2)cc1 15.9%
COc1ccc(CCNS(=O)(=O)c2cc(-c3cc(C)no3)ccc2OC)cc1OC -0.526%
Cc1cccc2nc(-c3ccc(N(C)C)cc3)c(Nc3ccc4c(c3)OCO4)n12 -2.52%
COc1ccc(CCNc2nc3ccc(Cl)cc3n3cnnc23)cc1OC -5.12%
O=C(NCCc1csc(-c2ccc(Cl)cc2)n1)c1ccco1 -1.16%
COc1cccc(CNC(=O)CSc2nc(=O)[nH]c3c2CCC3)c1 3.14%
CCCN(C(=O)C(=O)Nc1ccc2nc3n(c(=O)c2c1)CCCCC3)c1ccc(OCC)cc1 7.43%
COc1cc(NC(=O)c2cc(Cl)ccc2Cl)ccc1NC(=O)c1cc2ccccc2o1 1.57%
CCOC(=O)c1ccccc1NC(=O)Cn1c(=O)n(CCC(=O)N2CCc3ccccc3C2)c(=O)c2ccccc21 2.91%
Cc1cccc(C(c2sc3nc(-c4ccco4)nn3c2O)N2CCN(Cc3ccccc3)CC2)c1 (stereo not drawn) 1.17%
COc1ccccc1-c1nnc(C2CCN(C(=O)c3cccc(Cl)c3)CC2)o1 2.52%
Cc1ccccc1NC(=O)Cn1c(=O)n(CCCCCC(=O)NCc2ccccc2Cl)c(=O)c2sccc21 -25.8%
COCCCNC(=O)c1[nH]c2ccccc2c1Sc1ccc(C)cc1 15.7%
COc1ccc(NC(=O)c2ccc3c(SCC(=O)O)c4c(nc3c2)CCCC4)cc1OC -14.8%
CCCOc1ccc(C(=O)Nc2ccc3oc(-c4ccc5ccccc5c4)nc3c2)cc1 1.91%
Cn1c(=O)c2c(nc(Oc3ccc(C#N)cc3)n2Cc2ccc(Cl)cc2Cl)n(C)c1=O -1.23%
O=C(Nc1ccc(Br)cc1F)c1cc(S(=O)(=O)NC2CCCC2)ccc1F 8.54%
CCOC(=O)c1cccc(-n2nnc3c(sc4nc(C)c(Br)c(C)c43)c2=O)c1 -37.9%
O=C(NCCc1ccccc1)c1cc(-c2ccc(Br)cc2)on1 7.8%
CCN1CCN(c2csc3ccc(F)cc3c2=O)CC1 2.04%
CCOC(=O)c1c(S(=O)(=O)NCC(=O)N2CCN(c3cccc(Cl)c3)CC2)c(C)n(C)c1C 6.85%
COc1cccc(CNC(=O)c2[nH]c3cc(C)ccc3c2Sc2ccccc2)c1 0.487%
Cc1cccn2c(=O)cc(CSc3nnc(NC(=O)COc4ccc(F)cc4)s3)nc12 -8.07%
O=C1CCc2cc(S(=O)(=O)NCc3ccc(Cl)cc3)cc3c2N1CC3 22.1%
COc1cccc(-c2nnc(-c3cc4cc(Cl)ccc4oc3=O)o2)c1 14.8%
Cc1cccc(NC(=O)CSc2nnc3scc(-c4ccccc4)n23)c1 2.71%
COc1ccccc1NC(=O)c1oc2ccccc2c1NC(=O)C(C)C 7.77%
CC(C)(C)c1ccc(CSc2nc3c(c(=O)[nH]2)CCCC3)cc1 -3.18%
Cc1ccccc1CNC(=O)c1ccccc1NC(=O)c1nsc2ccccc12 -14.6%
CC1CCN(S(=O)(=O)c2ccc3c(c2)c(=O)c(C(=O)NCc2ccc(Cl)cc2)cn3C)CC1 -4.85%
CCC1CCC(C(=O)NC(C(=O)NCCN(CC(C)C)CC(C)C)C(C)C)CC1 (stereo not drawn) 4.87%
COc1cc(-c2noc(CSc3nc(-c4ccc(F)cc4)cc(=O)[nH]3)n2)cc(OC)c1OC 12.6%
CCOC(=O)CC(NC(=O)CCc1c(C)nc2c(-c3ccccc3)c(C)nn2c1C)c1ccc(C)cc1 (stereo not drawn) 32.9%
COc1ccc(-c2c3c(=O)n(C)c(=O)n(C)c3cn2-c2cccc(N)c2)cc1 -5.21%
COc1cccc(CN2C(=O)N(c3ccc(C)cc3)C(=O)C2CC(=O)Nc2cc(OC)cc(OC)c2)c1 (stereo not drawn) 6.16%
CCOc1ccc(Nc2c(S(=O)(=O)c3ccc(Cl)cc3)cnc3ccc(OC)cc23)cc1 10.7%
Cc1ccc(-n2nnc(-c3nsc(NC(=O)c4ccccc4C)n3)c2C)cc1Cl 0.319%
O=C(Nc1ccc(F)cc1)N1CCN(c2ccc3nnc(-c4ccc(F)cc4)n3n2)CC1 12.7%
COCCCNC(=O)c1[nH]c2cc(OC)ccc2c1Sc1ccc(C)cc1 0.485%
COc1ccc(Cn2ccc3nc(C)c(C(=O)Nc4ccc(F)cc4)cc3c2=O)cc1 3.84%
Cc1nn(-c2ccccc2)c2c1N(CC(=O)NCc1ccc(N(C)C)cc1)C(=O)CS2 7.38%
Cc1cccc(NC(=O)c2cc3c(=O)n(Cc4ccco4)ccc3nc2C)c1 -0.8%
O=C(Nc1nnc(SCc2cc(=O)c3ccccc3[nH]2)s1)c1ccccc1 -4.2%
Fc1ccc(-c2nc(-c3cccs3)c(-c3cccs3)[nH]2)cc1 0.147%
Cc1cccc(NC(=O)CSc2nc3ccc(NC(=O)COc4ccc(Cl)cc4)cc3s2)c1 -15.2%
Cc1c(NC(=O)Cc2ccc(F)cc2)cccc1-c1nc2cccnc2s1 -17.6%
O=C(NCCn1cc(SCc2cccc(F)c2)c2ccccc21)c1cccc(C(F)(F)F)c1 0.613%
O=C(NCCOCCO)C(=O)Nc1c2c(nn1-c1ccc(F)cc1)CSC2 9.27%
Cn1c(SCC(N)=O)nc2c([nH]c3ccccc32)c1=O 6.83%
O=C(O)c1ccc(Nc2nc(-c3ccccc3)c3cc(Br)ccc3n2)cc1 -8.95%
COc1ccc(-c2nc3ccc(NS(C)(=O)=O)cc3o2)cc1 -3.92%
Cc1ccc(CNC(=O)c2cc3sccc3n2Cc2ccc(F)cc2)cc1 36.3%
CCC(=O)N1CCc2cc(S(=O)(=O)CCC(=O)N3CCN(c4ccccc4F)CC3)ccc21 8.73%
Cc1ccc(C)c(Cn2nnc(C(=O)NCc3ccccc3)c2N)c1 -1.39%
CN1CCN(CCCN2c3ccccc3Sc3ccc(Cl)cc32)CC1 15.9%
CCN(c1ccccc1)c1cc(NC)[n+](C)c(C)n1 -15.5%
CCC(CC)C(=O)N1CCc2cc(OC)c(OC)cc2C1COc1ccccc1OC (stereo not drawn) -2.75%
CCOc1ccc(CNC(=O)c2sc3nc(C)cc(C)c3c2-n2cccc2)cc1 -4.15%

outcome, inactive:
CCN(CC)CCNC(=O)c1ccc(-c2nc(CS(=O)(=O)c3ccc(C)cc3)c(C)o2)cc1
Cc1cc(C)cc(C(=O)Nc2c(C(=O)Nc3ccccc3F)oc3ccccc23)c1
CCOc1ccccc1C(=O)Nc1cccc2ccc(C)nc12
COc1cc(C2CC(=O)c3c([nH]c(C(=O)OCc4ccc(C)cc4)c3C)C2)cc(OC)c1OC (stereo not drawn)
Cc1ccc(NC(=O)/C=C/c2ccc(Cl)cc2)c(Br)c1
CCS(=O)(=O)N1CCc2cc(C(=O)NCc3ccc(Cl)cc3)ccc21
CN(C)c1ccc(CNC(=O)c2cnc3sc(N4CCCC4)nn3c2=O)cc1
CC(=O)c1cccc(NC(=O)CSc2nnc3ccc(-c4ccc(F)cc4)nn23)c1
O=C(Cc1ccccc1)N(Cc1cccnc1)c1nc2ccc(Cl)cc2s1
CCOC(=O)c1ccccc1NC(=O)Cn1c(=O)n(CCC(=O)NCc2ccccc2OC)c(=O)c2ccccc21
Cc1sc2ncn(CC(=O)Nc3ccc(F)cc3Cl)c(=O)c2c1S(=O)(=O)N1CCN(c2ncccn2)CC1
CCOC(=O)c1c(C)oc2ncnc(N3CCN(c4ccc(C)cc4C)CC3)c12
CCCCN(Cc1cccs1)S(=O)(=O)c1cc(-c2cc(C)no2)ccc1C
COc1ccc(-c2nc3scc(CCNS(=O)(=O)c4c(C)noc4C)n3n2)cc1OC
O=C(Nc1ccc(Cl)c(C(F)(F)F)c1)C1CCCN(S(=O)(=O)c2cccc3cccnc23)C1 (stereo not drawn)
O=c1c(N2CCN(c3cccc(C(F)(F)F)c3)CC2)csc2ccccc12
COc1ccccc1NC(=O)Cn1cnc2c(nc3n2CCCCC3)c1=O
Cc1ccc(CNC(=O)C2CCN(C(=O)c3ccc(-n4ccc5ccccc54)s3)CC2)cc1
COc1ccc(-c2cn3c(n2)sc2cc(C(=O)NCc4cccs4)ccc23)cc1
CCn1cc(C(=O)NCCc2ccc(Cl)cc2)c(=O)c2cc(S(=O)(=O)N3CCc4ccccc4C3)ccc21
Cc1ccc(N(Cc2cccs2)C(=O)c2ccccc2)cc1
CCOC(=O)c1cc(-c2ccccc2)n(CCC(=O)Nc2ccc(C(F)(F)F)cc2)c1C
CN(c1ncnc2c1c(-c1ccccc1)cn2-c1ccc(F)cc1)C1CCCCC1
CCC(=O)N1CCc2cc(S(=O)(=O)CCC(=O)N3CCN(c4ccccc4Cl)CC3)ccc21
Cc1ccc2cc3cc(C(=O)N4CCN(c5cccc(C(F)(F)F)c5)CC4)sc3nc2c1
Clc1ccccc1Cn1cccc1C1=NC(Cc2ccccc2)CO1 (stereo not drawn)
CC(=O)c1ccc(NS(=O)(=O)c2ccc3[nH]c4c(c3c2)CCCCCC4)cc1
Cc1ccc(NC(=O)CN2C(=O)CCc3cc(S(=O)(=O)N4CCOCC4)ccc32)c(C)c1
